Assay results published in PubChem BioAssay AID248 (DTP/NCI, 2004).
Inconclusive results and toxic doses are left out. Some entries of the source have several records that differ or are many. This is not the full list of results. The source may hold further records. Values that stand side by side are repeated measurements (runs, samples, wells, individuals or studies). Brackets with × count equal records among those shown.

System: L1210 leukemia ip in BDF1 mice, survival T/C
Assay: NCI In Vivo Anticancer Drug Screen. Data for tumor model L1210 Leukemia (intraperitoneal) in B6D2F1 (BDF1) mice
Details: endpoint: mean survival time, higher = longer survival

In the case of `COc1cc2c(c(OC)c1OC)-c1ccc(OC)c(=O)cc1[C@@H](NC(=O)CF)CC2`, the T/C (dose: 0.18 mg/kg/injection, schedule: Q01DX009 (ip), vehicle: saline) is reported as 111 % of control and 151 % of control.
For `NC(CSC(c1ccccc1)(c1ccccc1)c1ccccc1)C(=O)OC(c1ccccc1)c1ccccc1` (stereo not drawn), the T/C (dose: 400.0 mg/kg/injection, schedule: Q01DX001 (ip), vehicle: carboxymethylcellulose (CMC)) was 118 % of control and 151 % of control.
For `Nc1cc(Cl)c(Cl)c(Cl)c1`, the T/C (dose: 200.0 mg/kg/injection, schedule: Q01DX001 (ip), vehicle: carboxymethylcellulose (CMC)) was 96 % of control and 153 % of control.
For `S=P(N1CCOCC1)(N1CC1)N1CC1`, the T/C (dose: 70.0 mg/kg/injection, schedule: Q01DX001 (ip), vehicle: saline) was 123 % of control and 168 % of control and the T/C (dose: 80.0 mg/kg/injection, schedule: Q01DX003 (ip), vehicle: saline) was 106 % of control and 196 % of control.
In the case of `COc1cc(NS(C)(=O)=O)ccc1Nc1c2ccc([N+](=O)[O-])cc2nc2c(C)cccc12`, the T/C (dose: 10.0 mg/kg/injection, schedule: Q01DX009 (ip), vehicle: saline) is reported as 92 % of control and 175 % of control.
With `O=c1[nH][nH]c(=O)n1O` the T/C (dose: 200.0 mg/kg/injection, schedule: Q01DX009 (ip), vehicle: saline) was 100 % of control (2×) and 152 % of control.
With `NNC(=O)NO` the T/C (dose: 50.0 mg/kg/injection, schedule: Q01DX009 (ip), vehicle: saline) was 124 % of control and 154 % of control.
